Measurements: PubChem BioAssay AID651820 (National Center for Advancing Translational Sciences (NCATS), 2012)
Screen size: about 340,000 compounds; about 12,000 (3.5%) were called active. The inconclusive results got no clear call from the source; some entries with a clear call stand among them for comparison. Calls follow the shape of the dose curve; as a rule, active = well fitted inhibition curve with a large enough effect; inconclusive = small, poorly fitted or top-dose-only effect, or another doubt; inactive = no such curve, though single readings can be large or run the other way. Potencies of inconclusive entries are left out as doubtful fits.

experiment: qHTS Assay for Inhibitors of Hepatitis C Virus (HCV); conditions: Huh7.5.1 HCVcc-Cre (HCVcc is cell-culture hepatitis C virus) infection, luciferase reporter, 44 h; activity change, negative = inhibition: at 41.8 µM (top of the series) unless noted
Summary of the method: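 Luciferase read-out (15 sec integration) after a 15 min room-temperature substrate step quantifies HCVcc-Cre infection. Cells, 1,000 per well, had compound added 4 h post-plating, then virus at ~0.5 moi, and were cultured 44 h.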
% is scaled to controls: 0 for no effect and ±100 for the full control effect; potency is read from the fitted curve at half-maximal effect; tags tell the direction and shape of the fitted curve.

With `CC12CCC(C(S(=O)(=O)Nc3ccccc3)C1=O)C2(C)C` (stereo unspecified) as the molecule, how does the “activity change, negative = inhibition” value read?
Its value is inactive: 16%.

Which “activity change, negative = inhibition” value does the source give for `COc1ccc(/C=C/C(=O)N/C(=C\c2ccco2)C(=O)NCCc2nc3ccccc3[nH]2)cc1` here?
Its value is inactive: -29%.

For `COc1ccc(-c2nc(NC(C)=O)sc2-c2ccccc2)cc1`, which Potency is on record?
The Potency was active: 10 µM.

Which “activity change, negative = inhibition” value does the source give for `CC(C)CCNC(=O)CN(C(=O)CCC(=O)Nc1nccs1)C1CCCCC1` here?
Its value is inactive: 3.29%.

With `COc1ccc(/C=N/NC(=O)c2cccc(COCC(F)(F)C(F)F)c2)cc1` as the molecule, how does the “activity change, negative = inhibition” value read?
The value was inactive: -10.7%.

With `C/C(=N\N=C(N)N)c1ccc(Cl)c(Cl)c1` as the molecule, how does the Potency read?
The Potency was inconclusive [inhibitor, single point].

With `Cc1ccc(NC(=O)CCn2nc(C)cc2C)c(C)c1` as the molecule, how does the Potency read?
Its Potency is inconclusive [inhibitor, full curve, poor fit].

Which Potency does the source give for `CCOC(=O)Cn1c(=O)c2c(nc(Br)n2Cc2ccccc2Cl)n(C)c1=O` here?
Its Potency is inconclusive [inhibitor, single point].

Which Potency does the source give for `CC(c1ccccc1)N(CC(=O)NC1CCCCC1)S(=O)(=O)c1cccc(C(F)(F)F)c1` (stereo unspecified) here?
The Potency was inconclusive [inhibitor, single point].

For `COc1ccc(C(=O)Nc2ccc3nc4n(c(=O)c3c2)CCCC4)cc1[N+](=O)[O-]`, which “activity change, negative = inhibition” value is on record?
The value was inactive: 9.94%.

Which Potency does the source give for `N=c1c2c(ncn1Cc1ccco1)Oc1c(ccc3ccccc13)C2c1ccccc1` (stereo unspecified) here?
The Potency was inconclusive [inhibitor, single point].

With `CCOC(=O)N1CCN(C(=O)CSc2nc(C)nc3c2c(=O)n(C)c(=O)n3C)CC1` as the molecule, how does the Potency read?
The Potency was inconclusive [inhibitor, single point].

For `COc1ccccc1N(C)S(=O)(=O)c1ccc(C(=O)Nc2ccc(N3CCOCC3)cc2)cc1`, which Potency is on record?
The Potency was active: 10 µM.

With `COc1ccc(-c2nc3n(c2C)Cc2ccccc2-3)cc1` as the molecule, how does the activity change, negative = inhibition read?
Its activity change, negative = inhibition is inconclusive: -35.3% [inhibitor].

Which Potency does the source give for `CCCCOc1ncnc2c1[nH]c1ccc(OC)cc12` here?
The Potency was inconclusive [inhibitor, full curve].

With `Cc1ccc(N2C(=O)NC(=O)/C(=C/c3ccc(OC(=O)c4cccs4)cc3)C2=O)cc1` as the molecule, how does the “activity change, negative = inhibition” value read?
Its value is inactive: 17%.

With `CC1CN(C2CCCCC2)c2nc3c(c(=O)[nH]c(=O)n3C)n2C1` (stereo unspecified) as the molecule, how does the Potency read?
The Potency was inconclusive [inhibitor, single point].

With `COC(=O)C[C@]1(C(=O)OC)CN(C#N)N(c2ccc(Cl)cc2)C12c1ccccc1-c1ccccc12` as the molecule, how does the Potency read?
Its Potency is active: 5.62 µM.

For `CN(C)S(=O)(=O)N1CCN(CC(O)COc2ccc3cc(Br)ccc3c2)CC1` (stereo unspecified), which Potency is on record?
The Potency was active: 31.6 µM.

For `S=C(c1ccc(Cl)cc1)N1CCOCC1`, which “activity change, negative = inhibition” value is on record?
The value was inactive: 6.55%.

Which Potency does the source give for `Cc1nn(-c2ccccc2)c2c1C(c1ccc3c(c1)OCO3)SCC(=O)N2` (stereo unspecified) here?
Its Potency is inconclusive [inhibitor, full curve].
